The text below walks through data of PMC10190621.

Results are given in words; binding and its absence hold for the method and conditions named. Tags and fused reporters may be left off the sequences shown.

The experiment addresses T1, Fc-tagged DDRGK1 (full length) (human) (UniProt Q96HY6).
T1 sequence: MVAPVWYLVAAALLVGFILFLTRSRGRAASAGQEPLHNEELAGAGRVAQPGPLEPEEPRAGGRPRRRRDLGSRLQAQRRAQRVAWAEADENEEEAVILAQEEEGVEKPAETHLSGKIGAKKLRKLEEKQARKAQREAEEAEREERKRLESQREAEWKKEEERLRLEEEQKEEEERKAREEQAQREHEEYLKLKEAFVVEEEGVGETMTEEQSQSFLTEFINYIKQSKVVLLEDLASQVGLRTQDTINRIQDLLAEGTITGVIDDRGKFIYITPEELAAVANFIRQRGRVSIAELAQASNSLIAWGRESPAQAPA
Put plainly: pull-down; Fc pulldown: 10 µg purified Fc or Fc-DDRGK1 on Protein A/G immunomagnetic beads (room temperature 0.5 h), mixed with recombinant NRF2 and KEAP1 proteins at 4 °C overnight, washed three times, immunoblot; both purified.

B1: GST-tagged NRF2 (N-terminal amino acids 1-84, containing domains interacting with KEAP1) (domain or fragment, UniProt Q16236 1-84)
chain: MMDLELPPPGLPSQQDMDLIDILWRQDIDLGVSREVFDFSQRRKEYELEKQKKLEKERQEQLQKEQEKAFFAQLQLDEETGEFL
Regarding B1, the binding entry is on record as “no binding (tested: 10 µg Fc-DDRGK1)”.
